From PubChem BioAssay AID652104 (National Center for Advancing Translational Sciences (NCATS), 2013)
The campaign covered roughly 410,000 compounds. About 7,200 (1.8%) were called active. This list was built around the results that the source calls inconclusive (neither active nor inactive); the mix of calls is not that of the screen. Calls come from the whole dose curve; as a rule, active = well fitted activation curve with a large enough effect; inconclusive = small, poorly fitted or top-dose-only effect, or another doubt; inactive = no such curve, though single readings can be large or run the other way. Where the call is inconclusive, the potency comes from a doubtful curve fit.

Experiment: qHTS of TDP-43 Inhibitors; note: nearly all actives have a fitted effect of over 50% in size; for growth rescue (activation): % of control where 0% means no effect
Details: TDP-43 expressing yeast growth rescue, BacTiter-Glo, 24 h; growth rescue (activation): at 46.1 µM (top of the series) unless noted
How it was run: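 Luminescence from BacTiter-Glo reports growth of TDP-43-expressing yeast after 24 hr at 30 deg C with compound. Cells were raffinose-pregrown to mid-log, then seeded in galactose medium at OD600=0.02.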
Potency is the fitted concentration of half-maximal effect; tags give direction and shape of the fitted curve.

Potency, inconclusive:
Cc1ccc(NC(=O)CCSc2nnc(C)o2)cc1 4.47 µM [activator, full curve, poor fit]
COc1cccc(C(=O)NNC(=S)NC2CCCCC2)c1 2.24 µM [activator, partial curve]
Cc1onc(C(=O)NN)c1-c1csc(COc2ccccc2)n1 15.8 µM [activator, partial curve]
N#C/C(=C\Nc1ccc(Cl)cc1)S(=O)(=O)c1ccccn1 7.08 µM [activator, full curve, poor fit]
O=C(N/N=C/c1ccc(OCc2cnc(Cl)s2)cc1)c1ccncc1 12.6 µM [activator, partial curve, poor fit]
CCSC(=S)c1c(C)[nH]n(-c2ccccc2)c1=O 3.55 µM [activator, partial curve]
Nc1cc2c(cc1C(=O)c1ccc(Cl)cc1)OCCO2 12.6 µM [activator, single point]
N#CCC(=N)N1CCN(c2ccccc2)CC1 35.5 µM [activator, partial curve]
Cc1cc2occ(CC(=O)O)c2cc1C 11.2 µM [activator, partial curve]
COc1ccc2nc(NC(=O)Cc3cccs3)sc2c1 11.2 µM [activator, partial curve]
CC(=O)N1CCc2cc(Br)cc(S(=O)(=O)CCC(=O)N3CCN(c4cccc(C)c4C)CC3)c21 39.8 µM [activator, partial curve, poor fit]
O=C(COc1ccc(Br)cc1CO)Nc1ccccc1F 20 µM [activator, partial curve]
S=c1[nH]nc(-c2ccc3ccccc3n2)n1-c1cc(Cl)cc(Cl)c1 8.91 µM [activator, full curve]
CN(C(=O)n1cnc2ccccc21)c1ccccc1 6.31 µM [activator, full curve, poor fit]
COc1ccc(Oc2nnc(C)c3ccccc23)cc1 35.5 µM [activator, partial curve, poor fit]
COC(=O)CSc1nc(N)c2c3c(sc2n1)CCCC3 35.5 µM [activator, partial curve]
CCOc1ccccc1NC(=O)CC(O)(C(F)(F)F)C(F)(F)F 31.6 µM [activator, single point]
CNC(=S)N1N=C(c2ccc(C)cc2)CC1c1ccc(OC)cc1 (configuration not stated) 11.2 µM [activator, single point]
Cn1c(SCc2cccc([N+](=O)[O-])c2)nc2c(c1=O)SCC2 15.8 µM [activator, single point]
CCC(C)[C@@H](C(=O)Nc1ccc2c(c1)OCO2)N1Cc2ccccc2C1=O (some centres not stated) 28.2 µM [activator, partial curve]
O=C(Cc1ccc(F)cc1)N1CCN=C1SCc1ccc([N+](=O)[O-])cc1 20 µM [activator, single point]
Cc1cccc(N2CCN(C(=O)c3cc4ccc5cccnc5c4[nH]3)CC2)c1C 11.2 µM [activator, partial curve]
Cc1cc(C)n(-c2ccc(C(=O)Nc3ccccc3N3CCOCC3)cc2)n1 31.6 µM [activator, single point]
FC(F)(F)c1cccc(Nc2nc(N3CCCC3)nc(N3CCCC3)n2)c1 35.5 µM [activator, single point]
FC(F)(F)c1cccc(NCc2n[nH]c(=S)n2C2CCCCC2)c1 14.1 µM [activator, single point]
COc1ccccc1CCNC(=O)c1cc(-c2ccncc2)nc2ccc(Br)cc12 11.2 µM [activator, partial curve]
O=C(CCCN1CCC(O)(c2ccc(Cl)cc2)CC1)c1ccc(F)cc1 0.562 µM [activator, full curve, poor fit]
CSc1ccccc1NC(=O)c1ccc(Br)o1 11.2 µM [activator, partial curve]
COc1cccc(-c2noc(-c3cc4ccccc4oc3=O)n2)c1OC 0.891 µM [activator, full curve]
CC(Sc1nc2cc(Cl)ccc2s1)C(=O)Nc1ccc2c(c1)OCO2 (configuration not stated) 11.2 µM [activator, partial curve]
COc1cc(/C=N/O)ccc1Oc1ccc([N+](=O)[O-])cc1[N+](=O)[O-] 17.8 µM [activator, single point]
CSC1=NC(C(Cl)(Cl)Cl)N=C(c2ccc(C)cc2)N1 (configuration not stated) 10 µM [activator, partial curve]
COc1cc2c(cc1OC)C(C(=O)N1CCCCC1)C(c1ccccc1F)N(C)C2=O (configuration not stated) 3.16 µM [activator, partial curve]
Cc1ccc2cc(CCNC(=O)c3ccco3)c(=O)[nH]c2c1C 35.5 µM [activator, partial curve, poor fit]
Cc1cc(C)c2c(NC(=S)Nc3ccccc3)n[nH]c2n1 20 µM [activator, partial curve]
Oc1ccccc1-c1nc(NC2CCCC2)c2ccccc2n1 5.62 µM [activator, full curve]
Cn1c(Cc2cccc3ccccc23)nnc1SCc1ccc([N+](=O)[O-])cc1 35.5 µM [activator, single point]
CCOc1cccc(C(=O)N(Cc2ccc(C(C)C)cc2)C2CCS(=O)(=O)C2)c1 (configuration not stated) 20 µM [activator, partial curve]
Cc1ccc(C)c(OCCCC(C)(C)C(=O)O)c1 25.1 µM [activator, single point]
N#Cc1cccc(NC(=O)c2nc(-c3ccccc3)n(-c3ccccc3)n2)c1 35.5 µM [activator, single point]
CCSc1nc2c(cnn2-c2ccccc2)c(=O)n1N 12.6 µM [activator, partial curve]
CCN1C(=O)/C(=C\N(C(C)=O)c2ccccc2)OC1=S 31.6 µM [activator, single point]
O=C(O)c1ccc(NCc2cccs2)cc1 12.6 µM [activator, partial curve]
COc1ccc(C(=O)NC2CC(C)(C)Cc3occc32)cc1 (configuration not stated) 20 µM [activator, partial curve]
CC(C)Oc1ccc(C(=O)NCCc2csc(-c3cccc(F)c3)n2)cc1 35.5 µM [activator, single point]
Brc1ccc(-c2nn3c(-c4ccco4)nnc3s2)o1 12.6 µM [activator, single point]

Potency, active:
Cc1ccc(CCNC(=O)CCCn2c(=O)c3cccn3c3ccc(F)cc32)cc1 35.5 µM
Cc1ccnc(Nc2nc(-c3ccc(F)cc3)cs2)c1 7.94 µM
CN(C)c1ccc(-c2cc(NC=O)c3ncc(-c4ccc(F)c(Cl)c4)n3c2)cc1 22.4 µM
CCc1nn(C(C)C(=O)N2CCN(c3ccc(OC)cc3)CC2)c(=O)c2cc3occc3n12 (configuration not stated) 31.6 µM
CC(=O)N1N=C(c2ccccc2)CC1c1cn(C)c2ccccc12 (configuration not stated) 20 µM
Cc1ccccc1-n1c(-c2csc3ccccc23)n[nH]c1=S 20 µM
COc1ccc(Cl)cc1NC(=O)COC(=O)C1CCCCC1 12.6 µM
Cc1cc(C)n(-c2cc(C(C)(C)C)nc3c(-c4ccccc4)cnn23)n1 14.1 µM

Growth rescue (activation), inactive:
O=C(Nc1ncc(Cc2ccccc2Cl)s1)c1ccc2c(c1)CC(c1ccccc1)OC2=O (configuration not stated) 16.5%
COc1ccc(CNC(=O)CCc2c(C)nc3c4cccnc4nn3c2C)cc1 0%
COc1ccc(CC(=O)Nc2nnc3n2CCS3)cc1OC -14.5%
NNc1nc2ccc(F)cc2s1 -9.61%
CCN1Cc2ccccc2-c2ccccc2S1(=O)=O 44.5%
CC1CCCN(C(=O)c2ccc(CNc3c(N4CCCCC4)c(=O)c3=O)cc2)C1 (configuration not stated) 12%
O=C(C1CCCN(S(=O)(=O)c2ccc(F)cc2)C1)N1CCCCCC1 (configuration not stated) 19.9%
Cc1ccc(NC(=S)NNC(=S)Nc2ccc(C)cc2C)cc1 -0.829% [at 9.22 µM]
CCOc1ccc(/C=C/c2nc(C#N)c(NCc3ccc(OC)cc3)o2)cc1 8.91%
Nc1nnc(SCc2ccccc2Cl)s1 24.3%
NC(CCc1ccccc1)c1csc(Nc2ccc(C(=O)NCCO)cc2)n1 (configuration not stated) 10%
CCc1ccccc1NC(=O)N1CCN(Cc2nc3ccc(C)cc3o2)CC1 15%
COc1ccc(Cc2nnc(NC(=O)C3CC(=O)N(c4ccccc4C)C3)s2)cc1OC (configuration not stated) -2.1%
COc1ccc(-c2nc3c(c(=O)[nH]c(=O)n3Cc3ccccc3)n2Cc2ccccc2)cc1 9.99%
CC1Cc2ccccc2N1C(=O)Cn1cnc2ccccc2c1=O (configuration not stated) -3.07%
Cc1ccc(NS(=O)(=O)c2cccc3cccnc23)c(Br)c1 -9.22%
COc1ccc2c(C)cc(SCC(=O)Nc3c(C)n(C)n(-c4ccccc4)c3=O)nc2c1 -0.743%

Growth rescue (activation), inconclusive:
CN1CCN(C(c2ccc(Cl)cc2)c2cc(Cl)c3cccnc3c2O)CC1 (configuration not stated) -90.7% [activator]
